# Reference: publication PMC9703152 (Journal of hepatology, 2020)
# What was measured:
# HBVWT^C2 = assay: microbe, parasite or virus in culture; type: cell-based; details: Hepatitis B virus
# [1] = system: HBVETV-R^L180M/S202G/M204V; assay: microbe, parasite or virus in culture; type: cell-based; details: Hepatitis B virus
# HBVADV-R^A181T/N236T = assay: microbe, parasite or virus in culture; type: cell-based; details: Hepatitis B virus
# [2] = system: HBVETV-R^L180M/S202G/M204V; type: in vivo, PXB-mice; details: 0.2 mg/kg/day, end of two-week administration
# [3] = Huh-7, read-out: IC50^SB_cell (average)
# [4] = Huh-7, read-out: IC50^SB_cell (representative image)
Compound,IC50 (HBVWT^C2; [3]) [nM],IC50 (HBVWT^C2; [4]) [nM],"IC50 [1, 3] [nM]","IC50 [1, 4] [nM]",IC50 (HBVADV-R^A181T/N236T; [3]) [nM],IC50 (HBVADV-R^A181T/N236T; [4]) [nM],reduction of serum HBVETV-R^L180M/S202G/M204V-DNA copy numbers [2]
N#C[C@]1(CO)/C(=C\F)[C@@H](n2cnc3c(=O)[nH]c(N)nc32)C[C@@H]1O [E-CFCP],0.7,0.2,77.5,57.2,14.1,6.2,2 log and 1.84±0.09 log
"C=C1[C@H](CO)[C@@H](O)C[C@@H]1n1cnc2c(=O)[nH]c(N)nc21 [ETV, entecavir]",16,7,,53100,,184,
"CC(C)OC(=O)[C@H](C)N[P@](=O)(CO[C@H](C)Cn1cnc2c(N)ncnc21)Oc1ccccc1 [TAF, tenofovir alafenamide]",37,25,56,53.7,,86.5,
N#C[C@]1(CO)/C(=C/F)[C@@H](n2cnc3c(=O)[nH]c(N)nc32)C[C@@H]1O [Z-CFCP],938,,,,,,

# Where “and” joins values, the source holds several entries; their conditions need not be identical. Equal entries are not always repeated. Where two headings read alike, the source gives them in different places.
